# Results as given in PubChem BioAssay (Tox21).
# Values joined by “and” are separate entries in the source; they are usually repeats but may differ in a detail not shown here. Equal values may be shown once. This list was built around the results that the source calls inconclusive (neither active nor inactive); the mix of calls is not that of the screen. Where the call is inconclusive, the potency comes from a doubtful curve fit. Active and inactive are the calls of the source. Unless noted, calls follow the shape of the dose curve; as a rule, active = well fitted curve in the direction sought with a large enough effect in the repeat runs; inconclusive = weak or mixed curves; inactive = no such curve, though single readings can be large; an effect the other way counts as inactive or inconclusive.
# Assays:
# [1] = qHTS assay to identify small molecule antagonists of the estrogen receptor beta (ER-beta) signaling pathway - cell viability counter screen (AID 1259382); also: nearly all actives have a fitted effect of over 55% in size
# Outline: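 HEK293T ER-beta-UAS-bla, 2% charcoal-stripped FBS; compounds + 1nM E2 16 hr 37C; CellTiter-Glo luminescence, 30 min RT.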
# [2] = qHTS assay to identify small molecule agonists of the estrogen receptor alpha (ER-alpha) signaling pathway in the presence of an antagonist - cell viability counter screen (AID 1259386);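 also: cells exposed to compounds for 22 h at 37 °C before the viability read; nearly all actives have a fitted effect of over 30% in size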
# Outline: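 Steps: 5-day stripped-FBS culture; seed and incubate 24hr; add ICI-182,780 (10.0nM final); pin 15-point compound titration; incubate 22hr at 37C; add CellTiter-Fluor at 21hr; read fluorescence.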
# [3] = biological target: Progesterone receptor (Homo sapiens) (UniProt P06401); assay: qHTS assay to identify small molecule agonists of the progesterone receptor (PR) signaling pathway (AID 1346784; calls by dose curve; also: nearly all actives have a fitted effect of over 30% in size; as to activation: % is scaled to controls: 0 for no effect and ±100 for the full control effect); details: PR-UAS-bla HEK293T, beta-lactamase FRET ratio, 16 h; activation: at 92.4 µM (top of the series) unless noted
# Outline: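 PR-UAS-bla HEK 293T cells carrying a UAS-driven beta-lactamase reporter were seeded in medium with 2% charcoal-stripped FBS, preincubated 6 hr at 37C, then exposed to compounds in DMSO for 16 hr; agonism was read by LiveBLAzer B/G FRET fluorescence.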
# [4] = biological target: Progesterone receptor (Homo sapiens) (UniProt P06401); assay: qHTS assay to identify small molecule antagonists of the progesterone receptor (PR) signaling pathway (AID 1346795; active = well fitted inhibition curve with a large enough effect in the signal ratio in the repeat runs, not every such curve was filed as active; inconclusive = weak or mixed curves; the % refers to the signal ratio; as to activity change, negative = inhibition: % is scaled to controls: 0 for no effect and ±100 for the full control effect); details: PR-UAS-bla HEK293T, beta-lactamase FRET ratio, 16 h; activity change, negative = inhibition: at 92.4 µM (top of the series) unless noted
# Outline: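 PR-UAS-bla HEK293T cells carrying a UAS-driven beta-lactamase reporter were plated in medium with 2% charcoal-stripped FBS and rested 6 hr at 37C. Compounds were added with 1 nM R5020 (final) for 16 hr, then FRET substrate loaded 2 hr at room temperature.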
# [5] = qHTS assay to identify small molecule antagonists of the progesterone receptor (PR) signaling pathway - cell viability counter screen (AID 1346798); also: nearly all actives have a fitted effect of over 50% in size
# Outline: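 PR-UAS-bla HEK293T cells in medium with 2% charcoal-stripped FBS were treated with compounds plus R5020 for 16 hr at 37C. Cell viability was then read by CellTiter-Glo luminescence after 30 min at room temperature in the same wells.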
# [6] = qHTS assay to identify small molecule agonists of the progesterone receptor (PR) signaling pathway - cell viability counter screen (AID 1346799; calls by dose curve; also: nearly all actives have a fitted effect of over 45% in size)
# Outline: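 PR-UAS-bla HEK293T cells, 3,000 per well in medium with 2% charcoal-stripped FBS, were preincubated 6 hr at 37C, then exposed to compounds for 16 hr; viability was read as CellTiter-Glo luminescence after 30 min at room temperature.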
# [7] = qHTS assay to identify small molecule antagonists of the TGF-beta/Smad signaling pathway (AID 1346924; active = well fitted inhibition curve with a large enough effect in the signal ratio in the repeat runs, not every such curve was filed as active; inconclusive = weak or mixed curves; the % refers to the signal ratio); details: SBE-bla HEK293T, TGF-beta/Smad reporter, beta-lactamase ratio; activity, negative = inhibition: at 76.8 µM (top of the series) unless noted
# Outline: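 Read-out was FRET-substrate fluorescence (405 nm excitation; 460 and 530 nm emission) after 2 h at room temperature. Before that, cells carrying a Smad-binding-element beta-lactamase reporter in HEK 293T had been stimulated 5 h at 37 C with TGF-beta1 (0.25 ng/mL addition solution) in the presence of test compound.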
# [8] = Caspase-3/7 induction in CHO-K1 cells by small molecules, qHTS cell viability counter screen (AID 1346979); also: nearly all actives have a fitted effect of over 35% in size
# Outline: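 Wild-type CHO-K1 cells were seeded at 1,500 per well, rested 5hr at 37 C, then exposed to compounds in DMSO. After 16hr, CellTiter-Fluor reagent was added and fluorescence read 1hr later as the viability measure.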
# [9] = Caspase-3/7 induction in CHO-K1 cells by small molecules, qHTS assay (AID 1346980); also: nearly all actives have a fitted effect of over 15% in size
# Outline: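 Luminescent Caspase-Glo 3/7 read (30min, room temperature) quantified apoptosis induction. Cells were wild-type CHO-K1, treated with compound for 17hr at 37 C and 5% CO2.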
# [10] = Human pregnane X receptor (PXR) small molecule agonists, qHTS cell viability counter screen (AID 1346977); also: nearly all actives have a fitted effect of over 50% in size
# Outline: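 PXR-Luc HepG2 cells in medium with 5% charcoal-stripped FBS were pre-incubated 5hr, then exposed to compounds for 24hr at 37C. Viability was read in the same wells by CellTiter-Fluor fluorescence, reagent added after 23hr with a 1hr incubation.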
# [11] = biological target: Thyrotropin receptor (Homo sapiens) (UniProt P16473); assay: qHTS assay to identify small molecule antagonists of the thyroid stimulating hormone receptor (TSHR) signaling pathway (AID 1259385; calls by dose curve; also: nearly all actives have a fitted effect of over 20% in size; as to activity change, negative = inhibition: % is scaled to controls: 0 for no effect and ±100 for the full control effect); details: TSHR-HEK293 cAMP HTRF, TSH-stimulated antagonist mode; activity change, negative = inhibition: at 92.4 µM (top of the series) unless noted
# Outline: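 Antagonist mode: compound-treated TSHR-expressing HEK293 cells were stimulated with 1.5 ng/mL TSH (final) in presence of Ro20-1724 for 30 min at RT. HTRF cAMP detection after 1 h; each compound tested at 15 concentrations, triplicate.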
# [12] = qHTS assay to identify small molecule antagonists of the TGF-beta/Smad signaling pathway - cell viability counter screen (AID 1346824); also: nearly all actives have a fitted effect of over 50% in size
# Outline: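 Cytotoxicity counter-screen run in the same wells as the beta-lactamase Smad reporter read: CellTiter-Glo luminescence after 30 min at room temperature. HEK 293T SBE-bla cells had 5 hr compound exposure at 37 C with TGF-beta1 (0.25 ng/mL stock).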
# [13] = qHTS assay to identify small molecule agonists of the TGF-beta/Smad signaling pathway - cell viability counter screen (AID 1346829); also: nearly all actives have a fitted effect of over 45% in size
# Outline: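 CellTiter-Glo luminescence readout; SBE-bla HEK 293T cells, overnight plating, compound 5 hr at 37 C/5% CO2, then bla substrate 2 hr RT, then CellTiter-Glo 30 min RT.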
# [14] = qHTS assay to identify small molecule agonists of the TGF-beta/Smad signaling pathway (AID 1346859; active = well fitted activation curve with a large enough effect in the signal ratio in the repeat runs, not every such curve was filed as active; inconclusive = weak or mixed curves; the % refers to the signal ratio); details: SBE-bla HEK293T, TGF-beta/Smad beta-lactamase reporter, 5 h; activation: at 76.8 µM (top of the series)
# Outline: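 HEK 293T cells stably carrying a beta-lactamase reporter driven by the Smad binding element were seeded overnight, exposed to DMSO-dissolved compounds for 5 hr at 37 C, 5% CO2, then loaded with FRET substrate for 2 hr at room temperature.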
# [15] = Caspase-3/7 induction in HepG2 cells by small molecules, qHTS assay (AID 1346978); also: nearly all actives have a fitted effect of over 15% in size
# Outline: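 Caspase-3/7 induction was measured by Caspase-Glo 3/7 luminescence (30 min, room temperature) after a 17 hr compound exposure of wild-type HepG2 cells seeded at 2,000 per well and pre-incubated 5 hr.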
# Potency is read from the fitted curve at half-maximal effect; tags tell the direction and shape of the fitted curve or compound fluorescence and quenching.
# UniProt P16473, sequence (P16473 whole entry, looked up): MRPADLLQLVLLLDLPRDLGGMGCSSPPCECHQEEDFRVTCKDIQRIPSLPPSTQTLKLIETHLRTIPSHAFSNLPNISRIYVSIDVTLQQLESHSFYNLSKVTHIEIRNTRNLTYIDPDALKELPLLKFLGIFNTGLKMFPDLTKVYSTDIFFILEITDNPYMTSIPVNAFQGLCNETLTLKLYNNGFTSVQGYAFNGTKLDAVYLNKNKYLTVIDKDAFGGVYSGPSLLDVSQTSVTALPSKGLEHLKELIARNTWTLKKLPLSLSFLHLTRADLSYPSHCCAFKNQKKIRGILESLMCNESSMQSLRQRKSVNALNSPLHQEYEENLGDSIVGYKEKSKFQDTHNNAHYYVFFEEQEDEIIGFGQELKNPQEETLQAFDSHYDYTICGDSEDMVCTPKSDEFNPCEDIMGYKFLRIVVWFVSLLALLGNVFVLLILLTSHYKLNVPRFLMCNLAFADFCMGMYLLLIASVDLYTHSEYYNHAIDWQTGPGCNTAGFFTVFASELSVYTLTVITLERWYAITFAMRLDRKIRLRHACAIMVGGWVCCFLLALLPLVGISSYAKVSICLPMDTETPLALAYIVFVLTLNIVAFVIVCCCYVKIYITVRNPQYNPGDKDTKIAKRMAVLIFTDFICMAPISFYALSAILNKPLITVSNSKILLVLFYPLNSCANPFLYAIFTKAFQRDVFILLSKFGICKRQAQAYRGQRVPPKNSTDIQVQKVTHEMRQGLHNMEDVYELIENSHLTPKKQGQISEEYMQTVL
# UniProt P06401, sequence (P06401 whole entry, looked up): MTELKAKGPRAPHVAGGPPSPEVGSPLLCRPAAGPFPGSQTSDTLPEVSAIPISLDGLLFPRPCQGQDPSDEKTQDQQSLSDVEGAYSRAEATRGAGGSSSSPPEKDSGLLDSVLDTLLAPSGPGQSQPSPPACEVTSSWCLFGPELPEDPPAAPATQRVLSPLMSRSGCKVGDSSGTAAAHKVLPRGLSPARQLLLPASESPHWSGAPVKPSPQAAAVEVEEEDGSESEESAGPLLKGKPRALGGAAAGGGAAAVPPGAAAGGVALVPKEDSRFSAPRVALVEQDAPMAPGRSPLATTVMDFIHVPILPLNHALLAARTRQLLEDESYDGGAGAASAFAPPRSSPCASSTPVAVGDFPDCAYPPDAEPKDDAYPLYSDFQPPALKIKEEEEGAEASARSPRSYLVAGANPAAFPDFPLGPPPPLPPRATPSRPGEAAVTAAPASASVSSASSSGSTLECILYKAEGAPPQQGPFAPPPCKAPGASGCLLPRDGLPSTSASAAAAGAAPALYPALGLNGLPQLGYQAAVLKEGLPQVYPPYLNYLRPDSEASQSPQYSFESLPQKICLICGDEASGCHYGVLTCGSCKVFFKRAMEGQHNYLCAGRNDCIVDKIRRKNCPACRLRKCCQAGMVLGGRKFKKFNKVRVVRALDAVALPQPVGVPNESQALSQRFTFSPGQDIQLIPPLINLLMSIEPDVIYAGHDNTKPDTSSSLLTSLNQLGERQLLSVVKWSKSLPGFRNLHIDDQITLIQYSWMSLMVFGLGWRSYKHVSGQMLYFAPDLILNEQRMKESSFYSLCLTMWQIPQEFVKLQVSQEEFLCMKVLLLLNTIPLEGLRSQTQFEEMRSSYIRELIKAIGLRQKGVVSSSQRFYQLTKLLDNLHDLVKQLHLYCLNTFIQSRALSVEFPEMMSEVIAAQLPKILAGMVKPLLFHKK
smiles,measurement,setting,value
CCCCCCCCc1ccc(O)cc1,Potency,[1],"inconclusive: 24.5 µM [cytotoxic, full curve]"
same,Potency,[2],"inconclusive: 27.5 µM [cytotoxic, partial curve]"
same,Potency,[3],inconclusive: 48.9 µM [cytotoxic]
same,Potency,[4],active: 20.4 µM
same,Potency,[5],inconclusive: 61.5 µM
same,Potency,[6],inconclusive: 27.5 µM
same,Potency,[7],inconclusive: 62 µM [cytotoxic]
same,Potency,[8],"inconclusive: 47.5 µM [cytotoxic, partial curve]"
same,Potency,[9],inconclusive: 51.7 µM [activator]
S=C(SSC(=S)N1CCCCC1)N1CCCCC1,Potency,[1],"inconclusive: 0.298 µM [cytotoxic, full curve]"
same,Potency,[4],"inconclusive: 0.75 µM [rising, partial curve]"
same,Potency,[5],active: 0.531 µM
same,Potency,[6],"inconclusive: 0.422 µM [cytotoxic, full curve, poor fit]"
same,"activity, negative = inhibition",[7],inconclusive: 1.54% [at 35.3 µM]
same,Potency,[10],"inconclusive: 26.6 µM [cytotoxic, partial curve, poor fit]"
O=[N+]([O-])c1ccccc1,Potency,[1],inactive
same,Potency,[11],inactive
same,Potency,[6],"inconclusive: 38.6 µM [rising, single point]"
CCOc1cc(C(C)(C)C)ccc1C1COC(c2c(F)cccc2F)=N1 (stereo not given),Potency,[1],active: 29.5 µM
same,Potency,[3],"inconclusive: 46.7 µM [cytotoxic, single point]"
same,Potency,[4],active: 23.4 µM
same,Potency,[5],active: 37.1 µM
same,Potency,[6],"inconclusive: 18.6 µM [cytotoxic, partial curve, poor fit]"
same,Potency,[12],"inconclusive: 29.7 µM [cytotoxic, single point]"
same,Potency,[10],inconclusive: 46.7 µM [cytotoxic]
same,Potency,[8],"inconclusive: 46.7 µM [cytotoxic, single point]"
CN1CSC(=S)N(C)C1,Potency,[1],active: 9.64 µM and active: 8.61 µM
same,Potency,[2],"inconclusive: 0.431 µM [cytotoxic, full curve, poor fit]"
same,Potency,[3],"inconclusive: 68.4 µM [cytotoxic, partial curve, poor fit]"
same,Potency,[4],active: 19.2 µM and active: 8.61 µM
same,Potency,[5],active: 27.2 µM and active: 21.6 µM
same,Potency,[6],"inconclusive: 27.2 µM [cytotoxic, single point] and active: 24.3 µM"
same,"activity, negative = inhibition",[7],inconclusive: -13.6% and inconclusive: 0.748%
same,Potency,[8],active: 1.36 µM and active: 7.67 µM
Brc1ccc(Oc2ccccc2)cc1,Potency,[1],"inconclusive: 70.3 µM [cytotoxic, single point]"
same,Potency,[11],"inconclusive: 62.6 µM [falling, single point]"
same,Potency,[4],"inconclusive: 70.3 µM [falling, single point]"
same,Potency,[6],"inconclusive: 78.8 µM [cytotoxic, single point] and inactive"
same,Potency,[8],inactive
C=C(Cl)CSC(=S)N(CC)CC,Potency,[1],inactive
same,Potency,[2],inactive
same,"activity change, negative = inhibition",[4],inconclusive: -21.5%
same,Potency,[5],inactive
Cc1nnc2n1-c1sc(CCc3ccc(CC(C)C)cc3)cc1C(c1ccccc1Cl)=NC2C (stereo not given),Potency,[1],active: 33.5 µM
same,Potency,[2],"inconclusive: 33.5 µM [cytotoxic, single point]"
same,activation,[3],inconclusive: 12.6% [at 42.5 µM]
same,Potency,[4],"inconclusive: 33.5 µM [falling, single point]"
same,Potency,[6],"inconclusive: 21.1 µM [cytotoxic, partial curve, poor fit]"
same,Potency,[12],"inconclusive: 26.8 µM [cytotoxic, single point]"
same,Potency,[13],"inconclusive: 26.8 µM [cytotoxic, single point]"
same,Potency,[14],"inconclusive: 9.52 µM [rising, partial curve]"
same,Potency,[7],"inconclusive: 10.7 µM [rising, partial curve]"
same,Potency,[10],"inconclusive: 33.5 µM [cytotoxic, single point]"
same,Potency,[15],"inconclusive: 33.5 µM [activator, single point]"
C[C@@H]1O[C@@H](O[C@@H]2C=C3CC[C@@H]4[C@H](CC[C@]5(C)[C@@H](c6ccc(=O)oc6)CC[C@]45O)[C@@]3(C)CC2)[C@H](O)[C@H](O)[C@H]1O,Potency,[1],active: 0.0094 µM
same,Potency,[11],active: 0.298 µM
same,Potency,[4],"inconclusive: 0.0944 µM [rising, full curve]"
same,Potency,[5],active: 0.0133 µM
same,Potency,[6],active: 0.0168 µM
same,Potency,[12],"inconclusive: 0.006 µM [cytotoxic, full curve]"
same,Potency,[13],"inconclusive: 0.0085 µM [cytotoxic, full curve]"
same,Potency,[14],"inconclusive: 3.38 µM [rising, partial curve, poor fit]"
same,Potency,[7],"inconclusive: 0.0169 µM [rising, full curve]"
same,Potency,[10],"inconclusive: 0.0211 µM [cytotoxic, full curve]"
same,Potency,[8],"inconclusive: 29.8 µM [cytotoxic, single point]"
